Data reported in the supplement of paper PMC8728848.
Some of the results follow.

Columns and labels:
Assay in all cases: glycan array binding signal (z-score within array); higher = stronger binding
Conditions in all cases: glycan notation: IUPAC condensed, linker removed
[1] = target: GalNAc(b1-3)GalNAc
In short: (§1)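 Glycan array data were curated from 3228 arrays in the Consortium for Functional Glycomics database and kept only where the protein sequence was available. Glycan names were converted to IUPAC-condensed notation, and columns mapping to the same glycan were averaged. The binding signal is a within-array Z-score, averaged across arrays of the same protein sequence at different concentrations or buffers and across linkers. Negative Z-scores can be read as non-binding.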

[2] = target: GalNAc(b1-4)GlcNAc
In short: as §1

[3] = target: GalNAc(b1-4)GlcNAc(b1-2)Man(a1-3)[GalNAc(b1-4)GlcNAc(b1-2)Man(a1-6)]Man(b1-4)GlcNAc(b1-4)GlcNAc
In short: as §1

[4] = target: GalNAc(b1-6)GalNAc
In short: as §1

[5] = target: Glc(a1-4)Glc
In short: as §1

[6] = target: Glc(a1-6)Glc(a1-6)Glc
In short: as §1

[7] = target: Glc(b1-4)Glc
In short: as §1

[8] = target: Glc(b1-6)Glc
In short: as §1

[9] = target: GlcA(b1-3)Gal
In short: as §1

[10] = target: GlcA(b1-3)GlcNAc
In short: as §1

[11] = target: GlcA(b1-6)Gal
In short: as §1

[12] = target: GlcNAc(a1-3)Gal(b1-4)GlcNAc
In short: as §1

[13] = target: GlcNAc(a1-4)Gal(b1-3)GlcNAc
In short: as §1

[14] = target: GlcNAc(a1-4)Gal(b1-4)GalNAc
In short: as §1

[15] = target: GlcNAc(a1-4)Gal(b1-4)GlcNAc
In short: as §1

[16] = target: GlcNAc(a1-4)Gal(b1-4)GlcNAc(b1-3)Gal(b1-4)Glc
In short: as §1

[17] = target: GlcNAc(a1-4)Gal(b1-4)GlcNAc(b1-3)Gal(b1-4)GlcNAc
In short: as §1

[18] = target: GlcNAc(a1-4)Gal(b1-4)GlcNAc(b1-3)Gal(b1-4)GlcNAc(b1-3)Gal(b1-4)GlcNAc
In short: as §1

[19] = target: GlcNAc(a1-4)Gal(b1-4)GlcNAc(b1-3)Gal(b1-4)[Fuc(a1-3)]GlcNAc(b1-3)Gal(b1-4)[Fuc(a1-3)]GlcNAc
In short: as §1

[20] = target: GlcNAc(a1-6)Gal(b1-4)GlcNAc
In short: as §1

[21] = target: GlcNAc(b1-2)Gal(b1-3)GalNAc
In short: as §1

[22] = target: GlcNAc(b1-2)Man(a1-3)[GlcNAc(b1-2)Man(a1-6)]Man(b1-4)GlcNAc(b1-4)GlcNAc
In short: as §1

[23] = target: GlcNAc(b1-2)Man(a1-3)[GlcNAc(b1-2)Man(a1-6)]Man(b1-4)GlcNAc(b1-4)[Fuc(a1-6)]GlcNAc
In short: as §1

[24] = target: GlcNAc(b1-2)Man(a1-3)[GlcNAc(b1-4)][GlcNAc(b1-2)Man(a1-6)]Man(b1-4)GlcNAc(b1-4)GlcNAc
In short: as §1

[25] = target: GlcNAc(b1-2)[GlcNAc(b1-4)]Man(a1-3)[GlcNAc(b1-2)Man(a1-6)]Man(b1-4)GlcNAc(b1-4)GlcNAc
In short: as §1

[26] = target: GlcNAc(b1-2)[GlcNAc(b1-4)]Man(a1-3)[GlcNAc(b1-4)][GlcNAc(b1-2)Man(a1-6)]Man(b1-4)GlcNAc(b1-4)GlcNAc
In short: as §1

[27] = target: GlcNAc(b1-2)[GlcNAc(b1-4)]Man(a1-3)[GlcNAc(b1-4)][GlcNAc(b1-2)[GlcNAc(b1-6)]Man(a1-6)]Man(b1-4)GlcNAc(b1-4)GlcNAc
In short: as §1

[28] = target: GlcNAc(b1-2)[GlcNAc(b1-6)]Man(a1-6)[GlcNAc(b1-2)Man(a1-3)]Man(b1-4)GlcNAc(b1-4)GlcNAc
In short: as §1

[29] = target: GlcNAc(b1-2)[GlcNAc(b1-6)]Man(a1-6)[GlcNAc(b1-2)Man(a1-3)][GlcNAc(b1-4)]Man(b1-4)GlcNAc(b1-4)GlcNAc
In short: as §1

[30] = target: GlcNAc(b1-3)Gal
In short: as §1

[31] = target: GlcNAc(b1-3)Gal(b1-3)GalNAc
In short: as §1

[32] = target: GlcNAc(b1-3)Gal(b1-4)Glc
In short: as §1

[33] = target: GlcNAc(b1-3)Gal(b1-4)GlcNAc
In short: as §1

[34] = target: GlcNAc(b1-3)Gal(b1-4)GlcNAc(b1-3)Gal(b1-4)GlcNAc
In short: as §1

[35] = target: GlcNAc(b1-3)GalNAc
In short: as §1

[36] = target: GlcNAc(b1-3)Man
In short: as §1

[37] = target: GlcNAc(b1-3)[GlcNAc(b1-4)][GlcNAc(b1-6)]GlcNAc
In short: as §1

[38] = target: GlcNAc(b1-3)[GlcNAc(b1-6)]Gal(b1-4)GlcNAc
In short: as §1

[39] = target: GlcNAc(b1-3)[GlcNAc(b1-6)]GalNAc
In short: as §1

[40] = target: GlcNAc(b1-4)Gal(b1-4)GlcNAc
In short: as §1

[41] = target: GlcNAc(b1-4)GlcNAc
In short: as §1

[42] = target: GlcNAc(b1-4)GlcNAc(b1-4)GlcNAc
In short: as §1

[43] = target: GlcNAc(b1-4)GlcNAc(b1-4)GlcNAc(b1-4)GlcNAc(b1-4)GlcNAc
In short: as §1

[44] = target: GlcNAc(b1-4)GlcNAc(b1-4)GlcNAc(b1-4)GlcNAc(b1-4)GlcNAc(b1-4)GlcNAc
In short: as §1

[45] = target: GlcNAc(b1-4)[GlcNAc(b1-6)]GalNAc
In short: as §1

B1: SEX4 (Arabidopsis thaliana), Q944A8 (protein)
chain: TQAMGAVLTYRHELGMNYNFIRPDLIVGSCLQTPEDVDKLRKIGVKTIFCLQQDPDLEYFGVDISSIQAYAKKYSDIQHIRCEIRDFDAFDLRMRLPAVVGTLYKAVKRNGGVTYVHCTAGMGRAPAVALTYMFWVQGYKLMEAHKLLMSKRSCFPKLDAIRNATIDILTGLKRKTVTLTLKDKGFSRVEISGLDIGWGQRIPLTLGKGTGFWILKRELPEGQFEYKYIIDGEWTHNEAEPFIGPNKDGHTNNYAKVVDDPTSVDGTTRERLSSEDPELLEEERSKLIQFLETCSEAEV
[1]
  glycan array binding signal (z-score): -0.534
[2]
  glycan array binding signal (z-score): -0.505
[3]
  glycan array binding signal (z-score): 0.582
[4]
  glycan array binding signal (z-score): -0.455
[5]
  glycan array binding signal (z-score): -0.393
[6]
  glycan array binding signal (z-score): -0.414
[7]
  glycan array binding signal (z-score): -0.561
[8]
  glycan array binding signal (z-score): -0.555
[9]
  glycan array binding signal (z-score): -0.449
[10]
  glycan array binding signal (z-score): 16
[11]
  glycan array binding signal (z-score): -0.508
[12]
  glycan array binding signal (z-score): -0.508
[13]
  glycan array binding signal (z-score): -0.428
[14]
  glycan array binding signal (z-score): -0.28
[15]
  glycan array binding signal (z-score): -0.308
[16]
  glycan array binding signal (z-score): -0.299
[17]
  glycan array binding signal (z-score): -0.392
[18]
  glycan array binding signal (z-score): -0.144
[19]
  glycan array binding signal (z-score): 1.26
[20]
  glycan array binding signal (z-score): -0.576
[21]
  glycan array binding signal (z-score): -0.6
[22]
  glycan array binding signal (z-score): -0.02
[23]
  glycan array binding signal (z-score): 3.1
[24]
  glycan array binding signal (z-score): 0.722
[25]
  glycan array binding signal (z-score): -0.234
[26]
  glycan array binding signal (z-score): 0.008
[27]
  glycan array binding signal (z-score): -0.164
[28]
  glycan array binding signal (z-score): -0.387
[29]
  glycan array binding signal (z-score): -0.06
[30]
  glycan array binding signal (z-score): -0.595
[31]
  glycan array binding signal (z-score): -0.173
[32]
  glycan array binding signal (z-score): -0.216
[33]
  glycan array binding signal (z-score): -0.48
[34]
  glycan array binding signal (z-score): -0.42
[35]
  glycan array binding signal (z-score): -0.489
[36]
  glycan array binding signal (z-score): -0.575
[37]
  glycan array binding signal (z-score): -0.453
[38]
  glycan array binding signal (z-score): -0.547
[39]
  glycan array binding signal (z-score): -0.35
[40]
  glycan array binding signal (z-score): -0.575
[41]
  glycan array binding signal (z-score): -0.146
[42]
  glycan array binding signal (z-score): -0.388
[43]
  glycan array binding signal (z-score): -0.427
[44]
  glycan array binding signal (z-score): -0.533
[45]
  glycan array binding signal (z-score): -0.489
